The full ranking holds about 33,000 sequences; the median of “E-score (dimensionless, -0.5 to 0.5)” is about -0.058, and the highest 2% start at about 0.35. This is one part of the list.
The sequences below were run on MvaT (assay: PBM 8-mer E-score (mean of HK and ME arrays) (E-score (dimensionless, -0.5 to 0.5)); higher = stronger relative binding preference; most listed sequences are background and not binding sites).
In short: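 Reported values are rank-based E-scores, taken as the mean of two universal arrays and parsed with a custom script. Each 8-mer score falls between -0.5 and 0.5. The arrays, ME and HK, were double-stranded 60-mers with a constant 25-mer primer region and a variable 35-mer region covering all 8-mers. They were probed, by an earlier protocol, with full-length P. aeruginosa MvaT carrying an N-terminal glutathione S-transferase fusion.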

Sequence	PBM 8-mer E-score
CAGACGAC	-0.131
ACGTTAGA	-0.0394
ATAACCAC	0.174
GTCACGAC	-0.172
CCCAACAG	-0.146
ATTGGAGC	-0.00417
AAATCAGT	0.111
CGCCGTTA	0.0739
GGTTCCCA	-0.25
GGAATGAC	-0.144
CCTCCACA	-0.106
CAAGTTGC	0.0785
GAACAGGA	0.0121
AGTGATAC	0.13
ATGTCTAA	0.058
AGTACCTC	-0.222
GTTTAACA	0.281
GTGCCTTA	-0.086
GGGATAAC	0.0674
AATAGGCT	0.0938
AAGACCCG	-0.189
CAAATGCC	-0.147
CCGAGCGA	-0.245
GTCGGCAA	-0.118
CCTGTTGC	-0.185

Sequence	PBM 8-mer E-score
GGGTCTCA	-0.275
CAGCGCCC	-0.28
CTAATTGC	0.184
CGATTTGA	-0.0458
GACCCCGA	-0.159
GGGTGGAC	-0.172
AGCTGCAA	-0.0349
ACCGACTA	-0.0207
GGGCCTCA	-0.193
GGAGCTTA	-0.0736
ACTTTATC	0.105
GAACTCCC	-0.283
AATGCTAT	0.145
GGGCTAGA	-0.189
AAACCGTC	-0.0545
TACTTCGA	0.155
ACGTAAAC	-0.0262
TCGAAAAA	0.114
AGGCATGA	-0.262
ACTCCTCC	-0.244
TCTCCTAA	0.0217
AAGCCTCA	-0.0957
GGTTCCAA	-0.0647
ACAACTAG	0.108
AACAGCGC	-0.0777

Sequence	PBM 8-mer E-score
ACTGCACG	0.0104
CGCTCGTC	-0.278
CGCTCCAA	-0.146
ACGTTTCC	-0.0974
CGTCCGCA	-0.142
GATGATTA	0.0955
TCGAGGAA	-0.0588
CCCCGAGA	-0.341
AACACTTG	0.0423
GCCTACAA	0.049
GTTCTAAA	0.0579
CGGAGTTA	0.119
AGAGAGGG	-0.195
CATGCAGC	-0.269
GGAGTGCC	-0.23
CATAAGAG	0.0447
AGAAGCTC	-0.243
AACGGTGG	-0.0935
ACCGGGCA	-0.157
ATGCCTCG	-0.16
AAAGCTGC	-0.125
ATCTTCCC	-0.117
CCAAGATC	-0.146
GTCAATCA	-0.0887
AAATGTCT	0.105

Sequence	PBM 8-mer E-score
AATGAGCC	-0.0909
GCCCGACA	-0.188
CGCGTCCG	-0.292
ACGATGAC	-0.0476
AACCGATG	-0.172
ATACCGAC	0.0818
CCAACTGG	-0.132
ATTAACTA	0.339
ACTCGTAC	-0.064
GGCTAACA	0.0276
GCTGAGTA	-0.028
ATATACCA	0.34
ATTAATGG	0.262
GGATCATA	0.0137
TAGGTGGA	0.00141
CCATATAG	0.084
CGACCAAA	0.0243
CGTATGGA	0.00978
AACTAGTT	0.392
GTTCTCCA	-0.0822
AAATATAC	0.333
AGTGGCTG	-0.0193
AGGCCTGA	-0.256
CACACTTA	0.174
GAGGAGTA	-0.153

Sequence	PBM 8-mer E-score
GCAACGTA	0.119
AGCACTAT	0.195
ATCGAATG	-0.0513
CTATGTAA	0.17
CGATCCAA	-0.201
AATAACGC	0.238
ACAACATC	0.251
TATATTGA	0.387
ATCCGATC	-0.145
GCTTATCA	0.0172
CTAAAAGA	0.105
CCTAAGTA	0.0665
AACGGCCT	-0.23
AGTTAGAA	0.168
CCGGTGTA	-0.151
AGTCTATC	-0.107
CCCTTAAG	-0.0427
GGTGAACC	-0.0492
CTCGTGGC	-0.225
CCCCGATA	-0.142
GCGTAGAA	-0.0825
CACGACCC	-0.166
CGTCTATA	0.162
ACAGTAGT	0.134
AACCTAGT	0.117

Sequence	PBM 8-mer E-score
ATTTTTAC	0.262
ACTGTGTG	0.0336
ATGTTGTA	0.253
AGCTGCTG	-0.146
CTTTCCCC	-0.114
ACTGAAAC	-0.034
ACACAAAA	0.149
CCGTCAGA	-0.255
CCGCCGGC	-0.321
AGTCTGAT	0.0745
CGAGGACA	-0.0785
GAGACACC	-0.155
GCCGATGA	-0.199
GGCTTCAC	-0.256
ATGCCCAA	0.0106
ACGCGATC	-0.12
CATATAGA	0.187
ATCTGGTG	-0.0882
CTTCTCGA	-0.0897
CTAAACGA	-0.0092
AACGCCGG	-0.176
AAGTGTGT	0.173
GGAAAGGA	-0.043
GACCTAAC	-0.022
CCACAGAC	-0.0737

Sequence	PBM 8-mer E-score
GGACTCAC	-0.234
ACCGGTGG	-0.137
CGACCCCC	-0.325
GAGGTCAC	-0.295
ACCTTAAG	0.0216
CCCCGAAA	-0.205
AATCGTCG	0.0139
ACGAAAGC	-0.194
ATGAACCG	-0.0766
TAATCACA	0.239
AATGCGCG	-0.0887
GTGGTAGA	0.00466
CTCGCGCA	-0.163
ACACGCCT	-0.0821
ATCTGCTA	0.109
ATACCCAA	0.145
AATGGCAC	0.0315
GTCCCCAA	-0.101
GCAGGTAA	0.00718
ACGTTGAC	-0.137
CAAGGCGG	-0.246
AGAAGCTA	-0.112
GCTGATAC	-0.0304
CCCCAGGA	-0.228
CCGTCGAC	-0.199

Sequence	PBM 8-mer E-score
AATGACCG	-0.00123
ATGTACGC	0.0162
GCCCGCAC	-0.192
ACGATATG	0.0174
ACATTTAA	0.388
CTCTTAAC	0.159
ACGAGAAC	-0.0886
GCACGGTA	0.156
CTGACTCC	-0.172
TGTATAAA	0.258
AAACCCTC	-0.195
ACAGAACC	-0.182
TATCAAGA	0.117
AACGCTTG	-0.0287
ACCTGATC	-0.266
AACGATGA	-0.0169
ACCCATAT	0.154
GTTTACGA	-0.0306
ACTCGGAG	-0.0597
CAGGCGCG	-0.265
CCGCTCCG	-0.172
CGAGAGCG	-0.228
TACTATAA	0.387
CAGCAACC	-0.14
ACCGATTA	0.229

Sequence	PBM 8-mer E-score
AATAGGTC	-0.0296
ACTCGCTA	-0.0529
AATACCTG	0.161
CCTCCGAA	-0.241
GAACAGGC	-0.147
AATAGCGA	0.174
AAACCACT	-0.0232
GCCCGGAC	-0.25
CTGATTGA	-0.0328
GCACTTCC	0.0843
TAGGCAAA	-0.0599
AAAGGCGG	-0.0871
ATTCCCAC	0.0666
AATGAGGC	-0.0425
GCAATCAC	-0.172
CCGACAAC	0.00549
AATGAGAA	-0.00156
CCTGTACC	-0.168
TATAACAA	0.355
ATTTCGTC	0.0525
CCCGAGGG	-0.257
GTGAAGTA	0.0571
ACCCACCT	-0.0645
AGTCGAAT	-0.00918
AGGTGGGC	-0.177

Sequence	PBM 8-mer E-score
AACCGTTC	0.0958
CCTGTCAC	-0.191
GAGAAGTA	0.233
ATTGCACA	0.0198
CGCACGAC	-0.192
CGGGGAGC	-0.222
CGTCACAG	-0.0835
ACGCACAC	-0.00993
AGTGTGAT	0.2
ATAAGCGA	0.0934
AGTTCCTA	0.0429
AGCACCCA	-0.0415
ATACGAAC	0.0915
GAGGGGGA	-0.327
CTCCCAGA	-0.0893
GCCATGGC	-0.151
ACAGAAGC	-0.122
AAACTACA	0.162
CATCGAAC	-0.0585
ACGGCAGA	-0.166
ACTGATCG	-0.0977
GCCTGGGA	-0.285
ATAATGCG	0.271
GGCTCCCC	-0.418
CGGGATAC	-0.0729

Sequence	PBM 8-mer E-score
ATCATGTG	-0.103
AACTTAGT	0.289
CTACAAAG	-0.188
CATGTCCA	-0.00463
CTACCCAA	-0.132
GTCGCGCA	-0.104
CATTCAGC	-0.199
AAGGGCAA	0.0932
ATACCCCG	-0.126
AGTGACAG	-0.17
GATCAGAA	-0.00247
ACAGCGTA	-0.193
GAAGGACA	-0.0699
ACTCTACG	-0.125
AGTTTCTC	0.115
AAATGTAA	0.373
GGCCTGAA	-0.182
GGAAACCA	-0.073
CAATCAAC	0.116
ACTTGTCG	-0.114
CCGCTTGA	-0.147
ACCCGACC	-0.189
GATCGACC	-0.209
TAGGGCAA	-0.0392
CAGTCATA	-0.0943

Sequence	PBM 8-mer E-score
ATAATGTA	0.401
CAGTGTTA	0.14
AACAGGCG	-0.0218
GCGTGGCA	-0.0664
CATGGACA	-0.0229
CAGCTATG	-0.165
ATCACCTG	-0.0796
GACCCAAA	0.0243
GGCAAGAC	-0.188
CGCCACCC	-0.121
TAAGTGAA	0.116
ATGCACTA	-0.018
GTTATTCA	0.236
CAAAATAC	0.251
CCAATTGA	0.0512
GCCCTCCC	-0.3
AGCGATAT	0.199
AACCCATC	-0.0855
CCCGTAAG	-0.0526
ACCATTTC	-0.0466
CCTCTTTA	0.0334
GTAGTGTA	0.0767
ATGGACAT	0.0935
ATTATTGG	0.293
GCTAAAGC	-0.182

Sequence	PBM 8-mer E-score
CCTAGATC	-0.178
GCGAGCCA	-0.16
CAGATCGG	-0.145
CGTACAGC	-0.216
ACTCTGCA	-0.0512
ACAGCCCC	-0.322
CCTACAAG	-0.202
GAGAGATA	0.142
ATGATAGA	0.216
CGACTCTA	-0.0974
CCCTGACC	-0.29
CACCACAG	0.0558
ACCAAACA	0.16
ACGCGATG	-0.0332
CCAGAAGA	-0.112
CCTTTCAA	0.0897
GCGCAGAC	-0.149
CTCCCGAC	-0.14
AAGGCTTC	-0.32
CGGTTCAG	-0.146
GGGTGAGA	-0.0612
CAGAAATG	0.103
CTAGCGTC	-0.298
ACTGTATA	0.305
AGTGATCG	-0.118

Sequence	PBM 8-mer E-score
ATGAACGG	-0.121
CAAAGAAC	0.131
ACCTCAAC	-0.185
CCATCAGA	-0.0987
GTATAGAA	0.0668
CTGACGTA	-0.0317
CTCGGTGA	-0.154
AGGATCAC	-0.113
CCCTCAAG	-0.253
CTGGTGCC	-0.116
AAATAACT	0.375
CATTAAGG	0.0854
CGACACCG	-0.239
AGCTATGG	-0.27
ATACCATA	0.29
ACGCCCGT	-0.237
CGTTGAGC	-0.226
TGGACGAA	-0.181
CCCTGGTA	-0.221

Reference: the supplement of paper PMC4466236
